According to PubChem BioAssay AID1476 (National Center for Advancing Translational Sciences (NCATS), 2009):
Among all 200,000 compounds or so, about 4,500 (2.2%) were called active. The shares of active, inactive and inconclusive entries below differ from those in the screen. Calls follow the shape of the dose curve; as a rule, active = well fitted inhibition curve with a large enough effect; inconclusive = small, poorly fitted or top-dose-only effect, or effect the other way; inactive = flat fitted curve, though single readings scatter. Potencies of inconclusive entries are doubtful fits and often do not repeat.
Also: nearly all actives have a fitted effect of over 40% in size.
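For max response, negative = inhibition in this document: plate controls were enzyme without inhibitor for no effect and buffer without enzyme for full effect.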
Potency is read from the fitted curve at half-maximal effect; tags tell the direction and shape of the fitted curve.

These molecules were tested against Cruzipain (Trypanosoma cruzi) (UniProt P25779) (assay: qHTS Assay for Promiscuous and Specific Inhibitors of Cruzain (without detergent)). Conditions: purified cruzain, Z-FR-AMC fluorescence, no detergent.
UniProt P25779, sequence (P25779 whole entry, looked up): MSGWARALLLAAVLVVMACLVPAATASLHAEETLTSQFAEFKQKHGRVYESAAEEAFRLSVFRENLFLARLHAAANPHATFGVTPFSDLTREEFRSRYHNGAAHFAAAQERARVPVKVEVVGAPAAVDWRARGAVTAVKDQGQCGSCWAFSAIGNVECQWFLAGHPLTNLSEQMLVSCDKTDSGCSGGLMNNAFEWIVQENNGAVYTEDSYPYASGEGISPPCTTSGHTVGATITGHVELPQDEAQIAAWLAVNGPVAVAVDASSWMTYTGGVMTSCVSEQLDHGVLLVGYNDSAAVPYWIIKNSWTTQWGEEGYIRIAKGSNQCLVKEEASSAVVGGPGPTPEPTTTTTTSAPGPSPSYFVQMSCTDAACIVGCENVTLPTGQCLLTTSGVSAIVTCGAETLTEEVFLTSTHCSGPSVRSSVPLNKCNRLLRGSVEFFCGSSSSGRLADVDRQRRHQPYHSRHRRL
How it was run: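 Purified cruzain at 1.5 nM, pre-incubated 15 min with compound at room temperature in 100 mM sodium acetate pH 5.5, 5 mM DTT, 0.00005% Triton X-100. Reaction started with 2 uM Z-FR-AMC; AMC fluorescence increase over 60 s gives rate.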
`O=C(Nc1cccc(N2CCCC2)c1)c1cccs1` was tested, and the Potency was inconclusive: 31.6 µM [inhibitor, single point]. With `CCOC(=O)c1cc(-c2ccccc2)n(CCCC(=O)Nc2ccccc2C)c1C` the max response, negative = inhibition was inactive: 10.7%. For `COCCNC(=O)c1c(NC(=O)c2ccc(Br)o2)n(Cc2ccccc2)c2nc3ccccc3nc12`, the Potency was inconclusive: 31.6 µM [activator, single point]. For `Nc1ccn([C@H]2O[C@@H](COP(=O)(O)O)[C@@H](O)[C@H]2O)c(=O)n1`, the max response, negative = inhibition was inactive: -2.29%. `O=C(O)CNC(=O)c1ccc([N+](=O)[O-])cc1` was tested, and the Potency was inconclusive: 39.8 µM [activator, single point]. With `O=C(Nc1ccc(Cl)c(Cl)c1)Nc1cc(S(=O)(=O)N2CCOCC2)ccc1N1CCCC1` the Potency was inconclusive: 39.8 µM [inhibitor, single point]. In the case of `O=C(CNC(=O)/C(=C\c1ccc(F)cc1)NC(=O)c1ccccc1)OCc1ccccc1`, the Potency is reported as inconclusive: 39.8 µM [inhibitor, single point]. `COc1ccc(N2C(=O)CSC23C(=O)N(Cc2ccc(C)cc2)c2ccccc23)cc1Cl` (configuration not stated) was tested, and the Potency was inconclusive: 31.6 µM [inhibitor, single point]. With `CC(C)c1ccc(/C=C(/C#N)c2nnc(NC(=O)c3ccccc3)s2)cc1` the Potency was active: 12.6 µM. `CCN(CC)C(c1ccc(F)cc1)c1nnnn1CC1CCCO1` (configuration not stated) was tested, and the max response, negative = inhibition was inactive: -2.55%. In the case of `CCOCCn1cnc2sc(C(=O)Nc3ccccc3C(=O)OC)c(C)c2c1=O`, the max response, negative = inhibition is reported as inactive: 3.72%. With `Cc1ccc(-c2nc(CCNC(=O)C(=O)Nc3c(C)cccc3C)cs2)cc1` the max response, negative = inhibition was inactive: 18%. For `CCN(C(=O)COC(=O)c1c2c(nc3ccccc13)/C(=C/c1ccccc1)CC(C)C2)C1CCS(=O)(=O)C1` (configuration not stated), the Potency was inconclusive: 12.6 µM [activator, partial curve]. In the case of `CCOC(=O)c1ccc(N2CCN(c3cc(C)ccc3C)CC2)c(NC(=O)Nc2ccc(Cl)cc2)c1`, the Potency is reported as inconclusive: 2.51 µM [inhibitor, full curve, poor fit]. For `COc1cccc(C(=O)CN(C(=O)c2ccc(Cl)c(Cl)c2)N2C(=O)c3ccccc3C2=O)c1`, the Potency was inconclusive: 39.8 µM [inhibitor, single point]. For `CCOC(=O)N1CCN(CC(=O)Nc2c(C(=O)OC)[nH]c3ccc(Cl)cc23)CC1`, the Potency was inconclusive: 31.6 µM [activator, single point]. For `O=C(NCc1ccco1)c1sc2cc(Cl)ccc2c1Cl`, the Potency was active: 25.1 µM. For `Cn1c(=O)c2c(-c3ccccc3)n(CCCO)cc2n(C)c1=O`, the max response, negative = inhibition was inactive: -4.96%. With `CS(=O)(=O)Nc1ccc([N+](=O)[O-])cc1OC1CCCCC1` the max response, negative = inhibition was inactive: -4.76%. In the case of `Cc1sc2c(c1C)CN(C(C)(C)C)CN2C(=O)c1ccccc1`, the Potency is reported as active: 25.1 µM. In the case of `COC(=O)COc1ccc2oc(=O)cc(C)c2c1`, the max response, negative = inhibition is reported as inactive: -6.25%. `Cc1c(O)c(O)cc2c1oc1c3ccccc3oc(=O)c21` was tested, and the Potency was inconclusive: 39.8 µM [activator, single point]. `COc1ccc(O[C@H]2C=C[C@@H](c3ccccc3)O[C@@H]2CO/N=C/C[C@@H]2C=C[C@H](OC(C)=O)[C@@H](COC(C)=O)O2)cc1` was tested, and the Potency was inconclusive: 25.1 µM [activator, partial curve]. `O=C(/C=C/NNC(=O)c1cccc(Br)c1)c1cccc(Br)c1` was tested, and the Potency was active: 7.94 µM. `COc1ccc(/C=C/C(=O)NC(=S)NNC(=O)Cc2cccs2)cc1` was tested, and the Potency was active: 12.6 µM. With `Cc1nn(C(=O)c2c(F)cccc2F)c(C)c1S(=O)(=O)N1CCCCCC1` the max response, negative = inhibition was inactive: -3.71%. In the case of `CCC(=O)Nc1ccc(-c2cc(-c3ccccc3)nc(-c3ccc(NC(=O)CC)cc3)n2)cc1`, the max response, negative = inhibition is reported as inactive: 5.12%. For `CCOc1ccc(OCC)c(NC(=O)C2CCCN(S(=O)(=O)c3cc(Br)cc4c3N(C(=O)CC)CC4)C2)c1` (configuration not stated), the max response, negative = inhibition was inactive: 5.51%. For `O=C(Nc1ccccc1N1CCCC1)c1cccc(-c2cc3ccccc3oc2=O)c1`, the Potency was active: 25.1 µM. `CCCS(=O)(=O)c1nc(S(=O)(=O)c2ccc(C)cc2)c(NCc2ccc3c(c2)OCO3)s1` was tested, and the Potency was inconclusive: 39.8 µM [inhibitor, single point]. In the case of `CCNc1nc(Cl)nc(NCCOc2ccc(C)cc2)n1`, the Potency is reported as inconclusive: 39.8 µM [inhibitor, single point]. `Cc1cc(S(=O)(=O)N(Cc2ccc(C(C)C)cc2)CC2CCCO2)ccc1-n1cnnn1` (configuration not stated) was tested, and the Potency was inconclusive: 39.8 µM [activator, single point]. With `COc1cc(C2c3c(oc4ccc(F)cc4c3=O)C(=O)N2Cc2ccc3c(c2)OCO3)ccc1O` (configuration not stated) the max response, negative = inhibition was inactive: 12.6%. In the case of `CCC(CC)C(=O)Nc1cccc(C(=O)Nc2ccc3c(c2)OCO3)c1`, the Potency is reported as inconclusive: 39.8 µM [inhibitor, single point]. In the case of `O=C(CCS(=O)(=O)c1nc(-c2ccc3c(c2)OCO3)cc(C(F)(F)F)n1)Nc1ccc(Br)cc1`, the Potency is reported as inconclusive: 39.8 µM [inhibitor, single point]. For `COc1ccc(NC(=O)Cc2c(C(=O)O)[nH]c3ccccc23)cc1OC`, the max response, negative = inhibition was inactive: -1.09%. In the case of `Cc1cccc2c1-c1sc(C(=O)NCCCN3CCN(c4ccccc4F)CC3)cc1CO2`, the Potency is reported as inconclusive: 3.98 µM [activator, single point]. `CC(C)Cn1c(N)c(C(=O)COC(=O)c2ccc3c(c2)OCCO3)c(=O)n(C)c1=O` was tested, and the Potency was inconclusive: 31.6 µM [activator, single point]. In the case of `Cc1ccc2cc(COC(=O)c3ccco3)c(=O)[nH]c2c1`, the Potency is reported as inconclusive: 15.8 µM [inhibitor, partial curve, poor fit]. For `CCOC(=O)/C=C1\SCC(=O)N1CC(=O)NC(c1ccccc1)c1ccccc1`, the Potency was inconclusive: 39.8 µM [activator, single point]. With `CC(C)c1ccc(/C=C2\SC(N3CCCC3)=NC2=O)cc1` the Potency was inconclusive: 39.8 µM [activator, single point]. With `O=C(O)CCn1cc(/C=C2/NC(=S)N(c3ccccc3)C2=O)c(-c2ccccc2)n1` the Potency was inconclusive: 39.8 µM [activator, single point].
